The campaign covered roughly 350,000 compounds. About 31,000 (8.9%) were called active. Inconclusive means that the source gave no clear call. Such entries were picked first, then a sample of the others. Calls follow the shape of the dose curve; as a rule, active = well fitted inhibition curve with a large enough effect; inconclusive = small, poorly fitted or top-dose-only effect; inactive = no such curve, though single readings can be large or run the other way. A potency beside an inconclusive call is a rough fit, not a confirmed value. Where a SMILES comes first, the peptide text is derived from it. The star is where a group is joined. Cbz = O=C(OCc1ccccc1)*
The molecules below were run against Histone-lysine N-methyltransferase EHMT2 (Homo sapiens) (UniProt Q96KQ7) (assay: qHTS Assay for Inhibitors of Histone Lysine Methyltransferase G9a). Settings: G9a H3K9 monomethylation, AlphaScreen, 2 h; activity, negative = inhibition: at 59 µM (top of the series) unless noted.
UniProt Q96KQ7, sequence (Q96KQ7 whole entry, looked up): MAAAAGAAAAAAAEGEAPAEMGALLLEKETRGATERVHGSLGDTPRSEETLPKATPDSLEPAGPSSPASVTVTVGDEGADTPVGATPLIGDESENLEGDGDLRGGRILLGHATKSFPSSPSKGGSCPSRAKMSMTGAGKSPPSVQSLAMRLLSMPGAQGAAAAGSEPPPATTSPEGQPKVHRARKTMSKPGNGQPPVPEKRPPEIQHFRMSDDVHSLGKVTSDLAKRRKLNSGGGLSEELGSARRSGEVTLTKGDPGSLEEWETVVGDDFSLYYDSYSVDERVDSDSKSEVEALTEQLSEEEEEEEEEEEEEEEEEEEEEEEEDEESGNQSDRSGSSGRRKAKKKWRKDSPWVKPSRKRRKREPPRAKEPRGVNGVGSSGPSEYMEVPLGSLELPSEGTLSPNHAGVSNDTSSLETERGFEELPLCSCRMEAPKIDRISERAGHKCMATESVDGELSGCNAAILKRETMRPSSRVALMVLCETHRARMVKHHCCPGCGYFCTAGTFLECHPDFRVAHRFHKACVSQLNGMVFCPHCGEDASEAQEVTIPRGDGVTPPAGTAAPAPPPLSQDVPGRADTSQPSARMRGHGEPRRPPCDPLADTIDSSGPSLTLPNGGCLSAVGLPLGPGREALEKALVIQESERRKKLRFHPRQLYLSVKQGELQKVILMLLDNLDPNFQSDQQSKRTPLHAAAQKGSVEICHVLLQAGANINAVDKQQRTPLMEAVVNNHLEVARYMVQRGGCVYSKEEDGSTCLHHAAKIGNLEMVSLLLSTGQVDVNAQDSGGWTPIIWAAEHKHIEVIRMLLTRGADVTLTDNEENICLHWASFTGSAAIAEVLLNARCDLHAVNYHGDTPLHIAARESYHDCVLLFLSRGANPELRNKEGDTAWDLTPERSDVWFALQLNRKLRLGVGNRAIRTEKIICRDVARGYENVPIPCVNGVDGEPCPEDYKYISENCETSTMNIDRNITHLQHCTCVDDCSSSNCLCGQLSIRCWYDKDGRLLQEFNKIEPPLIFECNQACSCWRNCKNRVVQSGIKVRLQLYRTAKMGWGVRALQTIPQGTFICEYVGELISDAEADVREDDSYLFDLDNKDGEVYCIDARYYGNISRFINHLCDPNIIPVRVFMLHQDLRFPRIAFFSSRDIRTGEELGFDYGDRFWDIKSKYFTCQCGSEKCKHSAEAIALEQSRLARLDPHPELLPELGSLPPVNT
Procedure, shortened: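 Compounds were preincubated with 20 nM G9a for 15 min, after which biotinylated H3K9 peptide (500 nM) and SAM (20 uM) started a 2 h room-temperature reaction. Monomethylated product was quantified by antibody-based AlphaScreen chemiluminescence.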
With `COC(=O)/C(C#N)=C/c1c(N2CCN(c3ccccc3)CC2)nc2ccccn2c1=O` the Potency was active: 79.4 µM. With `CCCn1c2ccccc2c2cnn(CC(=O)N(C)c3ccc(F)cc3)c(=O)c21` the Potency was “inactive”. In the case of `COc1ccc(Cl)cc1NC(=O)c1c(NCc2ccc(C)o2)sc2c1CCCCC2`, the Potency is reported as inconclusive: 3.55 µM [inhibitor, partial curve, poor fit]. `Cc1noc(C)c1CSc1ccccc1C(=O)Nc1nccs1` was tested, and the Potency was inconclusive: 12.6 µM [inhibitor, full curve, poor fit]. In the case of `S=c1[nH]nc(-c2cccc(Cl)c2)n1/N=C/c1ccc(-c2ccccc2Br)o1`, the Potency is reported as inconclusive: 50.1 µM [inhibitor, partial curve, poor fit]. In the case of `O=C(Nc1ccc(F)cc1)Nc1ccc(N2CCCC2)c(S(=O)(=O)Nc2ccccc2Cl)c1`, the Potency is reported as inconclusive: 39.8 µM [inhibitor, single point]. In the case of `COc1ccc(CCNC(=O)CSc2nc(O)cc(=O)[nH]2)cc1OC`, the Potency is reported as inconclusive: 56.2 µM [inhibitor, partial curve]. `Cc1c(C(=O)N2CCOCC2)cc(C(C)(C)C)n1-c1ccccc1` was tested, and the Potency was inconclusive: 50.1 µM [inhibitor, partial curve]. For `COC(=O)C1CCCN1C(=O)C1CCCN1C(=O)CNC(=O)OCc1ccccc1` (stereo not drawn) (Cbz-Gly-Pro-Pro-OMe; configuration not given here), the Potency was inconclusive: 22.4 µM [inhibitor, partial curve, poor fit]. `COc1ccc(-c2[nH]c3ccccc3c2SCCNC(=O)c2cc(OC)c(OC)c(OC)c2)cc1` was tested, and the Potency was inconclusive: 17.8 µM [inhibitor, partial curve, poor fit]. With `CN1CCN(C2Cc3ccccc3Sc3ccc(S)cc32)CC1` (stereo unspecified) the Potency was inconclusive: 22.4 µM [inhibitor, single point]. In the case of `CCCCN(C(=O)CSc1nnc(-c2ccco2)o1)c1c(N)n(Cc2ccccc2)c(=O)[nH]c1=O`, the Potency is reported as inconclusive: 44.7 µM [inhibitor, partial curve]. `COCC(O)CSc1nc(C)[nH]c1[N+](=O)[O-]` (stereo unspecified) was tested, and the Potency was inconclusive: 89.1 µM [inhibitor, single point]. With `Cc1cccc2sc(NNC(=O)c3ccc(S(=O)(=O)N4CC(C)CC(C)C4)cc3)nc12` (stereo unspecified) the Potency was active: 50.1 µM. `COc1ccc(CN(C(=O)/C=C/c2ccco2)C2CCS(=O)(=O)C2)cc1OC` (stereo unspecified) was tested, and the Potency was active: 39.8 µM. With `NC(=O)c1nsc(C(=O)N(c2cccc(F)c2)C(C(=O)NCc2ccccc2)c2ccc(O)cc2)c1N` (stereo unspecified) the Potency was inconclusive: 79.4 µM [inhibitor, single point]. With `Cc1nc(-c2ccc(F)cc2)c(CC(=O)N(C)CC(=O)Nc2ccc(Br)cc2C)s1` the Potency was active: 31.6 µM. With `O=C(COC(=O)[C@@H]1CCCN1S(=O)(=O)c1ccc(Cl)cc1)NC1CCS(=O)(=O)C1` (stereo partly specified) the Potency was inconclusive: 79.4 µM [inhibitor, single point]. `Nc1c(C(=O)Nc2ccc(Cl)c(C(=O)O)c2)sc2nc3c(cc12)CCCC3` was tested, and the Potency was active: 44.7 µM. With `Cc1ccc(-n2c(SCC(=O)Nc3ccc4c(c3)OCO4)nnc2-c2ccoc2C)cc1` the Potency was inconclusive: 28.2 µM [inhibitor, single point]. With `c1ccc(CNc2nc3c(-c4ccccc4)nnn3c3ccccc23)cc1` the Potency was inconclusive: 20 µM [inhibitor, single point]. `O=C(c1cc(F)c(F)c(F)c1F)N1CCN(Cc2ccc3c(c2)OCO3)CC1` was tested, and the Potency was inconclusive: 89.1 µM [inhibitor, single point]. `COc1ccc(-c2nc(CSCC(=O)NCc3ccc4c(c3)OCO4)c(C)o2)cc1OC` was tested, and the Potency was inconclusive: 44.7 µM [inhibitor, partial curve, poor fit]. In the case of `O=C(Cn1cnc2sc3c(c2c1=O)CCCC3)NCC(=O)Nc1ccc(F)cc1F`, the Potency is reported as “inactive”. In the case of `CC(=O)/C(N=Nc1cc(C)ccc1O)=C(\C)O`, the Potency is reported as inconclusive: 35.5 µM [inhibitor, partial curve, poor fit]. For `CCc1ccccc1-n1c(SCC(=O)Nc2ccc3c(c2)OCCO3)nc2[nH]ncc2c1=O`, the Potency was inconclusive: 39.8 µM [inhibitor, partial curve]. `COc1ccc(-c2c(NCCc3ccccc3)c(=O)c2=O)cc1` was tested, and the Potency was inconclusive: 1 µM [inhibitor, partial curve, poor fit]. In the case of `CCN(CCC#N)c1ccc(/C=N/Nc2nc(C)cc(=O)[nH]2)c(C)c1`, the Potency is reported as inconclusive: 56.2 µM [inhibitor, partial curve, poor fit]. For `CCCn1c(NCc2ccc(N(C)C)cc2)nc2ccccc21`, the Potency was active: 50.1 µM. `CCOc1ccc(CCNC(=O)c2cn(CC)c3ccc(S(=O)(=O)N4CCc5ccccc5C4)cc3c2=O)cc1OCC` was tested, and the Potency was “inactive”. `COC(=O)c1cc(=O)n(Cc2cccs2)c(=Nc2ccccc2)s1` was tested, and the activity, negative = inhibition was inconclusive: -56.7% [inhibitor] [at 12.7 µM]. With `O=C(NCCN1CCOCC1)/C(=C/c1ccco1)NC(=O)c1ccccc1` the Potency was inconclusive: 56.2 µM [inhibitor, partial curve]. In the case of `Nc1nc(-c2ccc(S(=O)(=O)N3CCCCC3)cc2)cs1`, the Potency is reported as inconclusive: 3.98 µM [inhibitor, single point]. `COc1ccc(-c2csc(N3CCN(C(=O)c4ccccc4)CC3)n2)cc1` was tested, and the Potency was active: 28.2 µM. For `CC1=CC(C)(C)NC(=S)N1c1ccc(C)c(C)c1`, the Potency was “inactive”. `N#Cc1c(NC(NC(=O)c2ccco2)C(=O)c2ccccc2)sc2c1CCCC2` (stereo unspecified) was tested, and the Potency was active: 5.01 µM. In the case of `O=C(N/N=C/c1cccc(O)c1)c1ccccc1O`, the Potency is reported as “inactive”. With `Cc1nn(Cc2ccc(F)cc2)c2sc(C(=O)Nc3ccc(N4CCOCC4)cc3N3CCOCC3)cc12` the Potency was active: 11.2 µM. In the case of `N[C@H](CSCc1ccccc1)C(=O)Nc1ccc([N+](=O)[O-])cc1`, the Potency is reported as inconclusive: 50.1 µM [inhibitor, partial curve]. `CCOC(=O)c1ccc(NC(=S)N2CCN(C(=O)C3CCCO3)CC2)cc1` (stereo unspecified) was tested, and the Potency was inconclusive: 50.1 µM [inhibitor, partial curve, poor fit]. `Cc1ccc(S(=O)(=O)N2CCN(C(=O)COC(=O)c3cccnc3Cl)CC2)c(C)c1` was tested, and the Potency was inconclusive: 6.31 µM [inhibitor, single point].
% is scaled to controls: 0 for no effect and ±100 for the full control effect; potency is read from the fitted curve at half-maximal effect; tags tell the direction and shape of the fitted curve.
Also: nearly all actives have a fitted effect of over 75% in size.
